According to PubChem BioAssay AID1461 (National Center for Advancing Translational Sciences (NCATS), 2008):
The campaign covered roughly 220,000 compounds. About 2,300 (1%) were called active. The inconclusive results got no clear call from the source; some entries with a clear call stand among them for comparison. Calls come from the whole dose curve; as a rule, active = well fitted inhibition curve with a large enough effect; inconclusive = small, poorly fitted or top-dose-only effect, or effect the other way; inactive = no such curve, though single readings can be large or run the other way. Potencies of inconclusive entries are left out as doubtful fits.

Biological target: Neuropeptide S receptor (Homo sapiens) (UniProt Q6W5P4)
Sequence of UniProt Q6W5P4 (Q6W5P4 whole entry, looked up): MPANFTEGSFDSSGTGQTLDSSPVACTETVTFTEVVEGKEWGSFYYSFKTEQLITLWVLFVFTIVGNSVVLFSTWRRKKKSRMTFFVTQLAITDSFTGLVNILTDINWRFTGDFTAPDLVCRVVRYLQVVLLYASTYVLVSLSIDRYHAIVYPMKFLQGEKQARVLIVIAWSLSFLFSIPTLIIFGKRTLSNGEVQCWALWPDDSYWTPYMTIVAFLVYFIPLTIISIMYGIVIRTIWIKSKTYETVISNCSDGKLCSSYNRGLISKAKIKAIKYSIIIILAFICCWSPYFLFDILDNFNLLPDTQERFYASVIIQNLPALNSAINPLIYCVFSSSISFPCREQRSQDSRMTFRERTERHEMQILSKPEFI
Assay: qHTS Assay for Antagonists of the Neuropeptide S Receptor: cAMP Signal Transduction; note: nearly all actives have a fitted effect of over 50% in size
Settings: CHO-NPSR cells, cAMP TR-FRET, antagonist mode; series mostly up to 38.3 µM
Potency is the fitted concentration of half-maximal effect; tags give direction and shape of the fitted curve.

| Structure (SMILES) | Potency |
| --- | --- |
| Cc1cc(/C=N/NC(N)=S)c(C)n1-c1ccc(Cl)cc1 | inactive |
| CCOc1ccc(OCC)c(NC(=O)CN(C)S(=O)(=O)c2cccc3nsnc23)c1 | inconclusive [inhibitor, full curve, poor fit] |
| O=C(Nc1ccc(-c2csc(Nc3cccc(C(F)(F)F)c3)n2)cc1)c1cccc(C(F)(F)F)c1 | inconclusive [inhibitor, single point] |
| COc1cc(C2C=C(C34CC5CC(CC(C5)C3)C4)NC(=S)N2)cc(OC)c1OC (stereo not drawn) | active: 10 µM |
| Fc1ccccc1COc1ccc(/C=N/NC(=S)NCc2ccccc2)cc1 | inactive |
| CCOC(=O)Cn1c(S(=O)(=O)Cc2cccc(F)c2)nc(-c2ccccc2)c1-c1ccccc1 | inconclusive [inhibitor, partial curve, poor fit] |
| CCOC(=O)Cn1c(S(=O)(=O)Cc2ccc(Cl)cc2)nc(-c2ccccc2)c1-c1ccccc1 | inconclusive [inhibitor, partial curve] |
| Cn1cc(C(c2ccccn2)c2cn(C)c3ccccc23)c2ccccc21 | inconclusive [inhibitor, single point] |
| C/C(=N\NC(=O)c1ccc([N+](=O)[O-])c(C)c1)c1ccccc1Cl | inactive |
| Cc1cc(C(=O)CCl)c(C)n1CCc1ccc(Cl)cc1 | inconclusive [inhibitor, single point] |
| CC(C)Cn1c([N+](=O)[O-])nc2c1c(=O)[nH]c(=O)n2C | inconclusive [inhibitor, single point] |
| Cc1ccc(NC(=O)CCCCCNS(=O)(=O)c2ccc(C)cc2)cc1 | inactive |
| Cn1c(=O)c(=O)n(C)c2cc(S(=O)(=O)N3CCc4ccccc43)ccc21 | inactive |
| N#Cc1c(C(F)(F)F)cc(-c2ccco2)nc1SCc1ccccn1 | inconclusive [inhibitor, single point] |
| Cc1ccc(-n2nnc3c(=O)oc4ccccc4c32)cc1 | inconclusive [inhibitor, single point] |
| O=C(/C=C/c1ccc2c(c1)OCCO2)c1ccc(O)cc1 | inconclusive [activator, single point] |
| COc1ccc(CN(Cc2cccnc2)C(=S)NCCc2ccccc2)cc1OC | inconclusive [inhibitor, single point] |
| Cc1cc(NCCN(C)C)n2nc(-c3cccs3)cc2n1 | inactive |
| c1cncc(C2Nc3ccccc3-c3nc4ccccc4n32)c1 (stereo not drawn) | inconclusive [activator, single point] |
| COc1ccc(-c2cc(-c3cc(OC)ccc3O)[nH]n2)cc1 | inconclusive [inhibitor, single point] |
| Cc1ccc2cccc(SCC(=O)NCC#N)c2n1 | inactive |
| Brc1ccc(C2C3=C(Nc4ncnn42)c2ccccc2OC3c2ccncc2)cc1 (stereo not drawn) | inconclusive [inhibitor, single point] |
| CCOC(=O)c1oc2ccccc2c1NC(=O)c1cc(OC)cc(OC)c1 | inconclusive [inhibitor, partial curve] |
| Cc1ccc(C(C(=O)NCc2ccccc2)N(C(=O)c2csnn2)c2cccc3ccccc23)o1 (stereo not drawn) | inconclusive [inhibitor, single point] |
| NC(=O)C1CCN(C2=C(Cl)C(=O)c3ccccc3C2=O)CC1 | active: 10 µM |

| Structure (SMILES) | Potency |
| --- | --- |
| CC(C)CCn1c(Oc2ccc(Cl)cc2)nc2c1c(=O)n(C)c(=O)n2C | inconclusive [inhibitor, full curve] |
| CNc1ccc(/C=C/C(=O)c2cccc3ccccc23)cc1[N+](=O)[O-] | inactive |
| CN1C(=O)C(CC(=O)Nc2ccc(Cl)cc2)N(Cc2ccco2)C1=S (stereo not drawn) | inactive |
| O=C(Nc1ccc(C(O)(C(F)(F)F)C(F)(F)F)cc1)c1ccc(Cl)c([N+](=O)[O-])c1 | inconclusive [inhibitor, single point] |
| CC(C)Nc1nc(NC(C)C)nc(N(C#N)CCOc2ccc(Cl)cc2Cl)n1 | inconclusive [inhibitor, single point] |
| COc1ccccc1/C=C/CN1CCN(c2ccccc2)CC1 | inactive |
| O=C(CN1C(=O)CSC1=O)N1CCCCC1 | inconclusive [inhibitor, full curve] |
| CC1CC(N(C(=O)c2ccc(Cl)cc2)c2ccccc2)c2ccccc2N1C(=O)c1ccco1 (stereo not drawn) | inconclusive [inhibitor, partial curve] |
| O=C(CCC(=O)CCN1CCCCC1)CCN1CCCCC1 | inactive |
| CCCC1=NN2C(=N)/C(=C\c3ccc(SCc4ccco4)o3)C(=O)N=C2S1 | inactive |
| O=C(OCCN1CCOCC1)c1ccc(OCCN2CCOCC2)cc1 | inactive |
| Cc1cc(C)c2c(c1)/C(=C/C(=O)c1ccc(Br)s1)C(=O)N2 | inactive |
| COC(CNC(=O)c1ccc2c(c1)nc(C)n2-c1ccc(F)c(F)c1)OC | inactive |
| Cc1cc(C)c(C#N)c(N2CCCC(C(N)=O)C2)n1 (stereo not drawn) | inactive |
| CCn1c(=O)c(C(=O)Nc2ccsc2C(=O)OC)c(O)c2ccccc21 | inconclusive [inhibitor, single point] |
| COCCn1c(SCc2nnc(-c3ccccc3)o2)nc2sc3c(c2c1=O)CCC3 | inconclusive [inhibitor, partial curve] |
| COc1ccc(-c2[nH]ncc2-c2ccc(Cl)cc2)c(O)c1 | inconclusive [inhibitor, single point] |
| COC(=O)N/N=C/c1cc(C)n(-c2ccccc2)c1C | inactive |
| CC(=O)OCCNc1cc(N2CCN(C)CC2)c2noc3c2c1C(=O)c1ccccc1-3 | active: 10 µM |
| COc1ccc(NC(=O)c2cc([N+](=O)[O-])ccc2O)cc1 | inconclusive [activator, partial curve] |
| CCOC(=O)/C(=C/C=C1\Sc2cc(C)c(C)cc2N1CC)C(C)=O | inconclusive [activator, partial curve] |
| NS(=O)(=O)c1cc(C(=O)OCC(=O)NC2CC2)ccc1Cl | inconclusive [inhibitor, single point] |
| CCOC(=O)C1=C(O)/C(=C/c2ccc(OCC(=O)O)c(OC)c2)SC1=Nc1ccc(OCC)cc1 | inconclusive [inhibitor, single point] |
| Cc1sc(NC(=O)CCl)c(C(=O)c2ccccc2)c1C | active: 7.94 µM |
| COC(=O)c1cc(=O)n(Cc2ccc3c(c2)OCO3)c(=Nc2ccccc2)s1 | inconclusive [inhibitor, partial curve] |

| Structure (SMILES) | Potency |
| --- | --- |
| CCOc1cc(NC(=S)Nc2ccccc2OC)c(OCC)cc1NC(=O)c1ccccc1C | inconclusive [inhibitor, partial curve] |
| CCOC(=O)C1CCN(S(=O)(=O)c2ccc(OCC(=O)OC)cc2)CC1 | inactive |
| O=C(CN1CC(=O)Oc2ccccc21)NCc1ccco1 | inactive |
| COCCCn1c(N)c(-c2nc3ccccc3n2C)c2nc3ccccc3nc21 | inconclusive [inhibitor, single point] |
| CCCC(=O)Nc1ccc(NC(=O)c2ccccc2OC)cn1 | inconclusive [inhibitor, single point] |
| COc1ccc(CN(C2CCCC2)S(=O)(=O)c2ccc(-n3cnnn3)c(OC)c2)cc1OC | inconclusive [inhibitor, single point] |
| COc1ccc(NC(=O)CCCN2C(=O)C3C4C=CC(C4)C3C2=O)c(OC)c1 (stereo not drawn) | inactive |
| Cc1cc(C(=O)CSc2nnnn2-c2ccc(O)cc2)c(C)n1Cc1ccc2c(c1)OCO2 | inconclusive [inhibitor, single point] |
| CCN1CCC2(CC1)N=C(c1ccc(F)cc1)C(=S)N2C(=O)c1ccc(C(C)(C)C)cc1 | inconclusive [inhibitor, partial curve, poor fit] |
| CC(C)Cn1c(N)c(C(=O)NCc2cccs2)c2nc3ccccc3nc21 | active: 12.6 µM |
| Cc1c(C(=O)OCC(=O)N2CC(C)OC(C)C2)oc2ccc(Br)cc12 (stereo not drawn) | inconclusive [inhibitor, partial curve, poor fit] |
| COc1ccc(C(=O)Nc2ccccc2NC(=O)c2ccco2)cc1OC | inconclusive [inhibitor, single point] |
| COc1cc(N=c2ssnc2Cl)cc(OC)c1OC | inconclusive [inhibitor, single point] |
| Cc1nc([N+](=O)[O-])c(Sc2nc3ccccc3[nH]2)n1Cc1ccccc1 | inactive |
| O=[N+]([O-])c1ccc(N=Nc2c(Cl)cc(O)cc2Cl)cc1 | active: 7.94 µM |
| Cc1oc(-c2ccccc2)cc1C(=O)NCc1ccncc1 | inactive |
| O=C(CSc1ncnc2c1oc1ccccc12)Nc1cccc(F)c1 | inconclusive [activator, single point] |
| Cn1nc(-c2ccccc2F)c2cc(C(=O)Nc3ccc4c(c3)OCCO4)sc21 | inconclusive [inhibitor, full curve, poor fit] |
| CC(C)(C)NC(=O)COC(=O)c1ccccc1Nc1ccc(SC(F)F)cc1 | inactive |
| CCO[C@H]1OC(C(=O)O)=C[C@@H](C2CC2)[C@@H]1CCCO | inactive |
| COc1ccc(NC(=O)CSc2nnc(-c3ccccc3C)n2N)cc1OC | inactive |
| C/C(=C\C(=O)c1ccc(F)cc1)Nc1ccc(N2CCOCC2)cc1 | inactive |
| COc1ccc(-c2cn(-c3ccc(C)cc3)c(=O)n2CC(=O)Nc2ccc(OC)c(OC)c2)cc1 | inconclusive [inhibitor, single point] |
